Experimental findings from publication PMC4336329 (PLoS ONE, 2015) are described below.

Each structure is given as a SMILES string. The whole screen tested about 310,000 compounds, of which about 2,200 (0.71%) showed an effect of 50% or more. The effect is printed as a negative number. Some of the results follow.

The target in the assay is human ether-à-go-go-related gene (hERG) potassium channel (human, UniProt Q12809). In words: primary screen, population patch clamp on CHO cells stably expressing hERG.
Sequence of human ether-à-go-go-related gene (hERG) potassium channel (Q12809 whole entry, looked up): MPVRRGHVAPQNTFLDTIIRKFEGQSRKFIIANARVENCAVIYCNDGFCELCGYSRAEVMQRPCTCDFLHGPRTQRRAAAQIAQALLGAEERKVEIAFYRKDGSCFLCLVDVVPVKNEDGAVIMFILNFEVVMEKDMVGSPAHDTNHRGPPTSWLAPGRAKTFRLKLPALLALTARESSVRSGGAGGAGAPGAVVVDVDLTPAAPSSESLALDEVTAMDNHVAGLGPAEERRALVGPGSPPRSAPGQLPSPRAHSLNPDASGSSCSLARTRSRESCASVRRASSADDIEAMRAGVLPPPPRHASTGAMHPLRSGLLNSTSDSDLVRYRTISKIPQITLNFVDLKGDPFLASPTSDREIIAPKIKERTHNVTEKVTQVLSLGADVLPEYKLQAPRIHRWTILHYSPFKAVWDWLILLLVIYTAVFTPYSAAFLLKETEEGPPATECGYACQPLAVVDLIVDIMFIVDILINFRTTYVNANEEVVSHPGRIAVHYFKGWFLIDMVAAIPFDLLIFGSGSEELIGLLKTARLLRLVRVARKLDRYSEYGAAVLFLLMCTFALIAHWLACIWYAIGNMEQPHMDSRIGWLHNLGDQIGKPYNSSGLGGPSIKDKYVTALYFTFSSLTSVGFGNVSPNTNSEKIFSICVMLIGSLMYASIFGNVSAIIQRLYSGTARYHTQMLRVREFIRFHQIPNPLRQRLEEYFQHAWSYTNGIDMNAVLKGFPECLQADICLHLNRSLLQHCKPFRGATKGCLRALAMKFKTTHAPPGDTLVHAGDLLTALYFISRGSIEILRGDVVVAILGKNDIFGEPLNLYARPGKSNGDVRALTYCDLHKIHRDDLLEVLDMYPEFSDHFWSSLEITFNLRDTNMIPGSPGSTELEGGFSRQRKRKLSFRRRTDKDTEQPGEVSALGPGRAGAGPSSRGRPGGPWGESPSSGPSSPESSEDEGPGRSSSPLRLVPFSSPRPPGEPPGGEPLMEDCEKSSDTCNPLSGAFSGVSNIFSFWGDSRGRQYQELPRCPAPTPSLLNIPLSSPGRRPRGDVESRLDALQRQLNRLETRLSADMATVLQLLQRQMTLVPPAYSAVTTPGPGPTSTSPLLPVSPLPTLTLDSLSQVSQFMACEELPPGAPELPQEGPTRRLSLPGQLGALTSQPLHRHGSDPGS
For `CCO[C@H]1OC(C(=O)N2CCOCC2)=C[C@@H](C2CC2)[C@@H]1CCCO`, the “hERG current change (%, negative = inhibition) at 1uM” value amounted to 16.1%.
`CC1CCN(S(=O)(=O)c2ccccc2)CC1`: the “hERG current change (%, negative = inhibition) at 1uM” value was determined as 8.5%.
Regarding `FCCCOc1ccc(-c2nccc(-c3ccc(F)cc3)n2)cc1`, the “hERG current change (%, negative = inhibition) at 1uM” value was found to be 5.11%.
In the case of `CN(Cc1ccc(Cl)s1)C(=O)CCl`, the “hERG current change (%, negative = inhibition) at 1uM” value was -22.8%.
As for `Cc1cc(N/N=C/c2ccccc2Cl)nc(NCc2ccccc2)n1`, the “hERG current change (%, negative = inhibition) at 1uM” value is given as 10.7%.
Turning to `CC(C)CCn1c(N)c(S(=O)(=O)c2cccs2)c2nc3ccccc3nc21`, the “hERG current change (%, negative = inhibition) at 1uM” value was -7.19%.
As for `Cc1cc(OCC(=O)Nc2cc(S(=O)(=O)N3CCOCC3)ccc2N2CCCC2)ccc1C(C)C`, the “hERG current change (%, negative = inhibition) at 1uM” value is recorded as 5.09%.
Regarding `COc1ccccc1-c1cc(C(=O)NC2CCN(C)CC2)c2ccc(Cl)c(C)c2n1`, the “hERG current change (%, negative = inhibition) at 1uM” value amounted to 7.38%.
For `COc1cccc(NC2=NCCCS2)c1`, the “hERG current change (%, negative = inhibition) at 1uM” value stood at 7.06%.
To `CCOC(=O)c1c(C)nn(-c2ccc(NC(=O)c3c(C)noc3C)cc2)c1C` belongs 19.5%; to `CCn1c(SCC(=O)Nc2ccc3c(c2)OCCO3)nnc1C(C)C`, 2.5%; to `CCCCCCn1c(-c2cccs2)n[nH]c1=S`, 7.13%.
Take `CCCc1[nH]nc2c1C(c1ccc(OC(=O)N3CCOCC3)cc1)C(C#N)=C(N)O2` (centres unmarked): the “hERG current change (%, negative = inhibition) at 1uM” value amounted to 9.16%.
Turning to `NS(=O)(=O)c1ccc(CCN2C(=O)/C(=C\c3ccc(Cl)cc3)SC2=S)cc1`, the “hERG current change (%, negative = inhibition) at 1uM” value is 13.9%.
As for `Cc1ccc(C)c(NS(=O)(=O)c2cc(C(=O)N3CCCC3)ccc2Cl)c1`, the “hERG current change (%, negative = inhibition) at 1uM” value is given as 9.6%.
With `CCN(CC)c1ccc(/C=N/OCC(=O)N2CCCc3ccccc32)cc1`, the “hERG current change (%, negative = inhibition) at 1uM” value was 39.7%.
To `COc1cccc(C(=O)Cn2c(N3CCOCC3)nc3c2c(=O)n(C)c(=O)n3C)c1` belongs 15.5%; to `COc1cc(NC(=O)COc2cccc(C)c2C)ccc1NC(=O)c1ccco1`, 15.6%; to `Cc1ccc(-n2ncc3c2ncn2c(C)nnc32)cc1C`, 2.23%.
`O=C(NCCc1ccccc1)c1ccccc1F`: the “hERG current change (%, negative = inhibition) at 1uM” value amounted to 22.4%.
For the molecule `O=C1CCC/C(=N/NC(=O)c2sc3ccccc3c2Cl)C1`, the “hERG current change (%, negative = inhibition) at 1uM” value came to 8.96%.
Regarding `Cc1ccc(Nc2nc(C)nc3c2oc2ccccc23)cc1`, the “hERG current change (%, negative = inhibition) at 1uM” value is 11.5%.
To `CC(=O)c1cc(-c2ccc(F)cc2)n(CCC(=O)NC(C)(C)C)c1C` belongs 7.75%; to `COC(=O)c1ccccc1NC(=O)c1ccc(COc2cc(C)cc(C)c2)o1`, 5.13%; to `O=C(N1CCCCCC1)N1CCN(C(=O)N2CCOCC2)CC1`, -8.91%.
For the molecule `COc1c(C)cc(C(=O)C2CCCN(C(=O)Cn3ccc(C)n3)C2)cc1C` (centres unmarked), the “hERG current change (%, negative = inhibition) at 1uM” value was 3.51%.
`COc1cc2c(cc1OC)CN(CC(=O)NC(=O)NCc1ccccc1)CC2`: the “hERG current change (%, negative = inhibition) at 1uM” value is -0.579%.
To `C=CCc1ccc(O)c(-c2cc(CC=C)ccc2O)c1` belongs 12.9%.
To `Cn1nc(C(C)(C)C)c([N+](=O)[O-])c1C(N)=O` belongs 10.1%.
Consider `O=S(=O)(Nc1cccc(-c2nnco2)c1)c1ccc(Cl)cc1`, for which the “hERG current change (%, negative = inhibition) at 1uM” value is reported as 6.96%.
In the case of `Cc1n[nH]c(C)c1CCC(=O)N/N=C/c1cccc([N+](=O)[O-])c1`, the “hERG current change (%, negative = inhibition) at 1uM” value is 7.51%.
The value for `CC1CC(C)CN(CCOCCSc2ccc(Cl)cc2)C1.O=C(O)C(=O)O` (centres unmarked) was -11.6%.
`COCc1nc2ccccc2n1Cc1c(F)cccc1Cl`: the “hERG current change (%, negative = inhibition) at 1uM” value amounted to 6.84%.
As to `Nc1c(C(=O)C2CC2)sc2nc3c(cc12)CCC3`, the “hERG current change (%, negative = inhibition) at 1uM” value came out at 3.7%.
For the molecule `COc1ccc(C(=O)NCC(O)CN2CCOCC2)cc1[N+](=O)[O-]` (centres unmarked), the “hERG current change (%, negative = inhibition) at 1uM” value came to 10.8%.
As for `O=C(NCc1cccc2ccsc12)c1cccs1`, the “hERG current change (%, negative = inhibition) at 1uM” value worked out at 14.9%.
For `O=C(Nc1ccccc1O)C(c1ccccc1)c1ccccc1`, the “hERG current change (%, negative = inhibition) at 1uM” value was found to be 5.5%.
For `COc1ccccc1C(=O)Oc1ccccc1C(=O)Nc1ccccc1`, the “hERG current change (%, negative = inhibition) at 1uM” value stood at 30.5%.
`CC(=O)/C(N=Nc1ccc(C(=O)O)cc1)=C(\C)O`: the “hERG current change (%, negative = inhibition) at 1uM” value is on record as -5.31%.
On to `CCOc1ccc2nc(NC(=O)Cc3cccs3)sc2c1`, for which the “hERG current change (%, negative = inhibition) at 1uM” value came to 6.15%.
As for `O=c1oc2ccccc2c(Nc2cc3ccccc3cc2O)c1[N+](=O)[O-]`, the “hERG current change (%, negative = inhibition) at 1uM” value was 12.5%.
Take `CCn1cc(S(=O)(=O)Nc2cc(C)ccc2F)cn1`: the “hERG current change (%, negative = inhibition) at 1uM” value amounted to 10.5%.
For `O=C(O)c1cccc(S(=O)(=O)Nc2ccc(S(=O)(=O)N3CCOCC3)cc2)c1`, the “hERG current change (%, negative = inhibition) at 1uM” value is 6.15%.
For `COc1ccc(NC(=O)CN(C)C(=O)CCNC(=O)c2ccccc2OC)cc1`, the “hERG current change (%, negative = inhibition) at 1uM” value worked out at 12.3%.
With `O=c1[nH]c(C2CCN(S(=O)(=O)c3ccccc3C(F)(F)F)CC2)nc2c1nnn2Cc1ccccc1`, the “hERG current change (%, negative = inhibition) at 1uM” value came to 0.439%.
With `Cc1nc2ccccc2c(=O)n1CCc1ccccc1`, the “hERG current change (%, negative = inhibition) at 1uM” value is listed as 13.1%.
Take `Cc1cc(-c2ccccc2)nc(Oc2ccc(C(C)(C)C)cc2)c1S(C)(=O)=O`: the “hERG current change (%, negative = inhibition) at 1uM” value turned out to be 14.8%.
Regarding `c1ccc(N2CCN(c3ncnc4sc5c(c34)CCC5)CC2)cc1`, the “hERG current change (%, negative = inhibition) at 1uM” value is given as 13%.
Turning to `O=C(O)c1cc(-n2nnnc2SCc2ccccc2F)ccc1Cl`, the “hERG current change (%, negative = inhibition) at 1uM” value turned out to be 11.1%.
The value for `Oc1c(Cl)cc(Cl)cc1C(C#Cc1ccccc1)N1CCOCC1` (centres unmarked) was 5.55%; that for `O=C(NC(=S)N1CCCC1)c1ccc(Cl)cc1Cl` was 8.74%.
For the molecule `C[n+]1c(/C=C/c2ccc3c(c2)OCO3)ccc2ccccc21.[I-]`, the “hERG current change (%, negative = inhibition) at 1uM” value is recorded as 24.8%.
Turning to `COCC(=O)N1CCC(Oc2ccc(C(=O)N(C)C(C)c3ccon3)cc2)CC1` (centres unmarked), the “hERG current change (%, negative = inhibition) at 1uM” value is listed as 17.8%.
To `Cc1nnsc1C(=O)Nc1ccc(S(=O)(=O)N2CCCC(C)C2)cc1` (centres unmarked) belongs 15.2%.
For the molecule `O=C(CCSCc1cccc(Cl)c1)NCCC1=CCCCC1`, the “hERG current change (%, negative = inhibition) at 1uM” value is recorded as -4.79%.
With `C[C@H]1CCC[C@@]2(O[C@H](CCO)C[C@@H](O)[C@@H]2O)O1`, the “hERG current change (%, negative = inhibition) at 1uM” value worked out at 18.5%.
For the molecule `C=CCn1c(C(C)C)nc2ccccc21.Cl`, the “hERG current change (%, negative = inhibition) at 1uM” value worked out at 15.4%.
For `Cc1noc(C)c1COc1cccc(C(=O)OCC(=O)NCCN2C(=O)CSC2=O)c1`, the “hERG current change (%, negative = inhibition) at 1uM” value is -0.418%.
The value for `CC(C)CCc1noc(CN2CCC(C(=O)N3CCOCC3)CC2)n1` was 7%; that for `COc1ccc(S(=O)(=O)N2CCCCC2)cc1NC(=S)Nc1cccc(Cl)c1C` was 2.35%.
In the case of `COc1ccc(NC(C)=O)cc1S(=O)(=O)NCCc1ccccn1`, the “hERG current change (%, negative = inhibition) at 1uM” value was 5.7%.
For `NC1=NC[C@@H](Cc2ccc(O)cc2)N1CCC12CC3CC(CC(C3)C1)C2`, the “hERG current change (%, negative = inhibition) at 1uM” value is 10.4%.
Take `c1ccc(CCCN2CCOCC2)cc1`: the “hERG current change (%, negative = inhibition) at 1uM” value came to 22.1%.
`CC(C)Oc1ccc(C2(C#N)CC[N+](C)(C)CC2)cc1.[Br-]`: the “hERG current change (%, negative = inhibition) at 1uM” value amounted to 8.79%.
The value for `CCN1CCN(C(=S)Nc2ccc3nc4n(c(=O)c3c2)CCCCC4)CC1` was 7.5%; that for `CC(=O)c1ccc(N2CCN(CC(O)COC(c3ccccc3)c3ccccc3)CC2)cc1` (centres unmarked) was -12.5%.
For the molecule `C=CCNC(=O)c1cc2sccc2n1C`, the “hERG current change (%, negative = inhibition) at 1uM” value turned out to be 7.53%.
Turning to `NNC(=O)c1c[nH]c2ccc(OCc3ccccc3)cc12`, the “hERG current change (%, negative = inhibition) at 1uM” value turned out to be 10.4%.
As to `Cc1ccn2c(NC3CCCC3)c(-c3ccccn3)nc2c1`, the “hERG current change (%, negative = inhibition) at 1uM” value came to 11.2%.
Regarding `CCCS(=O)(=O)c1nc(S(=O)(=O)c2ccc(C)cc2)c(N2CCOCC2)s1`, the “hERG current change (%, negative = inhibition) at 1uM” value is on record as 24.5%.
`COc1cc(CC(NC(C)=O)C(=O)NC2CCN(S(=O)(=O)c3ccc(NC(C)=O)cc3)CC2)cc(OC)c1` (centres unmarked): the “hERG current change (%, negative = inhibition) at 1uM” value was 21.1%.
`CC(C)CC(C)NNC(=O)c1cc2ccccc2[nH]1` (centres unmarked): the “hERG current change (%, negative = inhibition) at 1uM” value was 11.9%.
Regarding `Cn1c(=O)c2c(nc(NCCO)n2CCCc2ccccc2)n(C)c1=O`, the “hERG current change (%, negative = inhibition) at 1uM” value stood at 9.89%.
Consider `COc1ccc(C)cc1NC(=O)C1CCN(C(=O)Cc2ccccc2)CC1`, for which the “hERG current change (%, negative = inhibition) at 1uM” value is recorded as 6.6%.
On to `COc1ccc(Nc2ncc(F)c(N3CCOCC3)n2)cc1`, for which the “hERG current change (%, negative = inhibition) at 1uM” value was 15.9%.
The value for `N#CCCN(NC1=NS(=O)(=O)c2ccccc21)C(=O)c1ccccc1Br` was -1.57%; that for `O=C1COc2ccc(C(=O)NC3CC3)cc2N1` was 11.6%.
For the molecule `CCCSc1nc2c(cnn2-c2ccccc2)c(=O)[nH]1`, the “hERG current change (%, negative = inhibition) at 1uM” value came out at 6.83%.
Regarding `CCCC1CC(C#N)N(N(C)C)C1=C(C#N)C#N` (centres unmarked), the “hERG current change (%, negative = inhibition) at 1uM” value was -0.895%.
For the molecule `CC(=O)NC(C)c1nc2ccccc2n1Cc1ccccc1F` (centres unmarked), the “hERG current change (%, negative = inhibition) at 1uM” value came to 4.02%.
To `CCOc1ccc(/C=N/Nc2nc(=O)[nH]nc2C)cc1OC` belongs -0.682%; to `Cc1ccc(-n2c(O)c(/C=N/NC(=O)C3COc4ccccc4O3)c3ccccc3c2=O)cc1` (centres unmarked), -2.19%.
To `O=C(Nc1ccc(N2CCN(C(=O)c3cccs3)CC2)cc1)c1ccccc1Cl` belongs 20.4%; to `CC1(C)Cc2c(cnn2-c2ccc(F)cc2)C(NC(=O)CCN2CCCC2=O)C1` (centres unmarked), 11.7%; to `COc1ccc(OC)c(-n2c(SCC(=O)Nc3cccc(S(N)(=O)=O)c3)nc3ccccc3c2=O)c1`, -6.71%.
As for `CNC(=O)COC(=O)c1c2c(nc3ccccc13)CCC2`, the “hERG current change (%, negative = inhibition) at 1uM” value was found to be 9.55%.
For `O=C(COc1ccccc1-c1ccccc1)N/N=C/c1ccncc1`, the “hERG current change (%, negative = inhibition) at 1uM” value is recorded as -9.22%.
As for `CCCCn1c(CCn2nc(C)c(Br)c2C)n[nH]c1=S`, the “hERG current change (%, negative = inhibition) at 1uM” value amounted to 8.84%.
To `CCCCC1(CCCC)NC(=S)N(Nc2ccc(C)cc2)C1=O` belongs 5.79%; to `CC(C(=O)NN)c1ccc([N+](=O)[O-])cc1` (centres unmarked), 6.21%.
Consider `O=S(=O)(Nc1ccc(Oc2ncccn2)c(Cl)c1)c1ccc(Cl)cc1`, for which the “hERG current change (%, negative = inhibition) at 1uM” value was found to be 9.33%.
To `O=S(=O)(Cc1cc(Sc2ccc(Cl)cc2)nc(-c2ccccc2)n1)c1ccccc1` belongs -1.19%.
